Reference: PubChem BioAssay AID624171 (National Center for Advancing Translational Sciences (NCATS), 2012)
Among all 410,000 compounds or so, about 1,200 (0.29%) were called active. Inconclusive results, whose numbers are uncertain, are shown with a selection of clear calls. The call rests on the fitted dose curve; in most records, active means well fitted activation curve with a large enough effect; inconclusive means small, poorly fitted or top-dose-only effect; inactive means flat fitted curve, though single readings scatter. A potency beside an inconclusive call is a rough fit, not a confirmed value.

Assay: qHTS of Nrf2 Activators; further: nearly all actives have a fitted effect of over 65% in size
Settings: AREc32 ARE-luciferase reporter (MCF7-derived line), luminescence, 24 h; series mostly up to 46.1 µM
Procedure, shortened: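 Quantitative high-throughput format: AREc32 reporter cells, 1000 per well, received compound by pin transfer and were incubated 24 hr at 37 deg C, 5% CO2, before Steady-Glo luminescence detection.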
Potency means the concentration at half of the fitted maximal effect; tags describe the fitted curve by direction and shape.

Structure (SMILES)	Potency
CCCN(CCC)CCCNC(=O)c1cc2c(-c3ccc(Cl)cc3)nn(C)c2s1	inactive
O=c1oc2ccccc2c(Nc2cccc(O)c2)c1[N+](=O)[O-]	inconclusive: 28.2 µM [activator, single point]
O=C(NN=Cc1ccccc1Cl)c1ccccc1	inconclusive: 15.8 µM [activator, single point]
c1csc(-c2nc(-c3ccc(-c4ccon4)s3)no2)c1	active: 5.62 µM
COc1ccc(-c2noc(-c3ccccc3Cl)n2)cc1OC	inconclusive: 11.2 µM [activator, partial curve]
Cc1ccc(-n2cc(CCCCCCCCC(=O)O)nn2)cc1	inactive
O=C(CSc1c2c(nc3ccccc13)CCC2)Nc1ccc(F)cc1F	inconclusive: 22.4 µM [activator, single point]
N#Cc1nc(-c2ccc(OCc3ccccc3)cc2)oc1NCc1cccnc1	inactive
O=C(CSc1nc2c(c(=O)[nH]1)CCC2)Nc1cccc(O)c1	inactive
Cc1noc(C)c1-c1ccc2ncnc(NC(C)c3ccco3)c2c1 (configuration not stated)	inconclusive: 15.8 µM [activator, partial curve, poor fit]
COc1ccc(/C=C/c2c([N+](=O)[O-])c(=O)n(C)c(=O)n2C)c(OC)c1OC	inconclusive: 31.6 µM [activator, single point]
O=C(OCC(=O)N1CCc2ccccc21)c1nc(Cl)ccc1Cl	inconclusive: 11.2 µM [activator, partial curve, poor fit]
COc1ccc(C(=O)c2ccc(Cl)c([N+](=O)[O-])c2)cc1	inconclusive: 35.5 µM [activator, partial curve, poor fit]
C/C(=N\NC(=O)c1cc(-c2cccc([N+](=O)[O-])c2)n[nH]1)c1ccc(F)cc1	inconclusive: 31.6 µM [activator, partial curve, poor fit]
O=C(CCS(=O)(=O)c1ccc(F)cc1)Nc1nnc(-c2ccc(F)cc2)o1	inconclusive: 20 µM [activator, single point]
Clc1ccccc1-c1nc(-c2ccncc2)no1	active: 11.2 µM
Clc1cccc(-n2ncc3c(NCCC4=CCCCC4)ncnc32)c1	inactive
COc1cc(C(C2C(=O)CC(C)(C)CC2=O)C2C(=O)CC(C)(C)CC2=O)ccc1OC(C)=O	inactive
CCc1nn(CC(=O)NCc2ccco2)c(=O)c2cc3cc(F)ccc3n12	inconclusive: 17.8 µM [activator, single point]
NS(=O)(=O)c1ccc(NC(=O)c2cc(-c3cccs3)nc3ccccc23)cc1	inconclusive: 3.55 µM [activator, full curve]
COC(=O)c1ccc(NCc2cc(O)ccc2O)cc1	inconclusive: 22.4 µM [activator, single point]
CCOc1ccc2[nH]c3ncccc3c(=O)c2c1	inactive
Cc1cc(Cl)ccc1OCCCC(=O)NO	inconclusive: 22.4 µM [activator, single point]
O=C(Nc1cccc(NC(=O)c2cccs2)c1)c1ccc([N+](=O)[O-])o1	inconclusive: 4.47 µM [activator, single point]

Structure (SMILES)	Potency
COC(=O)c1sc(N)c(C(=O)OC)c1Cn1ncc(Cl)c(Cl)c1=O	inconclusive: 11.2 µM [activator, partial curve, poor fit]
c1ccc(-c2nnc(-c3ccccc3)o2)cc1	active: 4.47 µM
CC1CN(c2sc(S(C)(=O)=O)nc2S(=O)(=O)c2ccc(Cl)cc2)CC(C)O1 (configuration not stated)	inconclusive: 2.24 µM [activator, full curve, poor fit]
C=C1C(=O)OC2C=C(CO)C3OC3C3OC3(C)CC(OC(=O)/C(=C/C)COC(C)=O)C12 (configuration not stated)	inconclusive: 3.16 µM [activator, partial curve, poor fit]
O=C(CNC(=O)c1ccc2c(c1)OCO2)N/N=C(Br)/C=C/c1ccccc1	inconclusive: 20 µM [activator, single point]
CCCc1nc2ccccc2c(=O)n1N	inactive
CC(/C=N/Nc1nnc2c(n1)[nH]c1ccccc12)=C\c1ccco1	inconclusive: 4.47 µM [activator, full curve]
COc1ccc(C(=O)CC(=O)C(=O)Nc2ccc(C)cc2Cl)cc1	inactive
CN(C1=NS(=O)(=O)N=C(N(C)c2ccccc2)O1)c1ccccc1	inconclusive: 17.8 µM [activator, single point]
COc1ccccc1NC(=O)c1nc(S(=O)(=O)Cc2ccccc2)ncc1Cl	inconclusive: 3.16 µM [activator, full curve, poor fit]
COc1cc(OC)c(NC(=O)Nc2nnc(N(C)C3CCCCC3)s2)cc1Cl	inactive
NCCNCCNCCN	inactive
NC(=O)CSc1nc2ccc(NC(=O)COc3ccccc3)cc2s1	inactive
O=C(NC(=S)Nc1ccccc1O)c1ccc(Cl)cc1Cl	inconclusive: 2 µM [activator, partial curve, poor fit]
Nc1ccccc1C(=O)NN=Cc1cccc([N+](=O)[O-])c1	inconclusive: 2.82 µM [activator, partial curve, poor fit]
CCn1c(/C=C\c2ccccc2C)nc2ccccc2c1=O	inconclusive: 10 µM [activator, partial curve]
Brc1ccccc1/C=N/Nc1ccccn1	inconclusive: 2.24 µM [activator, full curve, poor fit]
O=C(Nc1nc2c(s1)CCc1ccccc1-2)c1ccco1	inconclusive: 2 µM [activator, full curve, poor fit]
COc1ncccc1-c1nnn(-c2ccccc2)n1	inconclusive: 3.98 µM [activator, full curve, poor fit]
Cc1ccccc1OCCC(=O)N1CCN(S(=O)(=O)c2ccc(Br)cc2)CC1	inactive
O=C(NCCC1=CCCCC1)C1CC(=O)N(C2CCCCC2)C1 (configuration not stated)	inactive
O=C(c1ccc([N+](=O)[O-])o1)N1CCOCC1	inconclusive: 28.2 µM [activator, partial curve, poor fit]
COc1ccc(CCN(Cc2ccccn2)C(=S)Nc2ccccc2C)cc1OC	inactive
COc1cccc(NC(=O)N(C)C[C@H]2Oc3cc(C#Cc4ccncc4)ccc3S(=O)(=O)N([C@H](C)CO)C[C@H]2C)c1	inconclusive: 20 µM [activator, single point]

Structure (SMILES)	Potency
O=C(Nc1cccc(F)c1)c1coc(=O)c(Br)c1	inconclusive: 28.2 µM [activator, single point]
Nc1nc(-c2ccccc2)nc(-c2ccccc2O)n1	inconclusive: 3.16 µM [activator, single point]
N/C(=N\OC(=O)c1cccc(Cl)c1)c1ccncc1	active: 11.2 µM
OCCN=c1cc(-c2ccccc2)oc2ccc(Cl)cc12	inconclusive: 11.2 µM [activator, partial curve, poor fit]
c1ccc(Nc2nc(-c3ccccn3)cs2)cc1	inconclusive: 3.16 µM [activator, partial curve, poor fit]
CCCc1nn2c(=O)cc(COC(=O)c3cccc(NC(=O)CCc4ccccc4)c3)nc2s1	inconclusive: 2.51 µM [activator, full curve, poor fit]
Cc1c(/C=N/NC(N)=O)c2ccccn2c1C(=O)c1ccc(F)cc1	inactive
COc1ccc(C(=O)Nc2cc3c4c(c2)CC(=O)N4CCC3)cc1	inactive
N/C(=N\OC(=O)c1cccc(C(F)(F)F)c1)c1cnccn1	inconclusive: 20 µM [activator, partial curve, poor fit]
COc1ccc2c(c1)CCC1C2=NN(/C(C)=C/C(C)=O)C1c1cccc(F)c1 (configuration not stated)	inconclusive: 7.94 µM [activator, partial curve]
C(=N\Nc1nncc2ccccc12)/c1ccccc1	active: 11.2 µM
COc1cccc(N=Nc2c(N)[nH][nH]c2=O)c1	inactive
O=C(NCCCn1ccnc1)Nc1cccc2ccccc12	inactive
Cc1cc(-c2ccc(C)c(S(=O)(=O)N3CCCC(C)C3)c2)on1 (configuration not stated)	inactive
COc1ccc2cc(C(=O)/C=C/c3cc(OC)c(O)c(OC)c3)ccc2c1	inconclusive: 31.6 µM [activator, single point]
COc1ccc(N2C(=O)C3C(C2=O)C(C(=O)c2ccc(Cl)cc2)N2CCCC32)cc1 (configuration not stated)	inconclusive: 3.55 µM [activator, single point]
COc1ccc(C(=O)/C=C/c2ccccc2C(F)(F)F)cc1	inconclusive: 31.6 µM [activator, single point]
COc1cccc(C(C(=O)NC2CCCCC2)N(C(=O)c2ccco2)c2ccccc2OC)c1 (configuration not stated)	inactive
Cc1[nH]c(=O)c(C(=O)/C=C/c2ccccc2)c2c1CCCC2	inconclusive: 4.47 µM [activator, single point]
Oc1cccc(-c2nnc(-c3cccc(O)c3)nn2)c1	inconclusive: 1.58 µM [activator, partial curve, poor fit]
CCCS(=O)(=O)c1nc(S(=O)(=O)c2ccc(C)cc2)c(N2CCOCC2)s1	inconclusive: 10 µM [activator, partial curve, poor fit]
CCN(Cc1ccncc1)C(=O)c1cc(COc2ccc(C)c(C)c2)on1	inactive
O=C(COC(=O)c1ccc(Br)o1)Nc1ncc([N+](=O)[O-])s1	inactive
CC(=O)Nc1ccc(NC(=O)CSc2nnnn2-c2ccc(F)cc2)cc1	inconclusive: 22.4 µM [activator, single point]
